Test results taken from patent US20240376128A1, “N-CYCLOPROPYLPYRIDO [4, 3-D] PYRIMIDIN-4-AMINE DERIVATIVES AND USES THEREOF” (Jacobio Pharmaceuticals Co., Ltd., priority 2021, published 2024).

Tests used:
[1] = target: T1, K-Ras G13D (Homo sapiens, UniProt P01116, G13D); assay: Nucleotide exchange assay (GDP form K-Ras, no SOS1 added), TR-FRET; conditions: read-out: Biochemical assays, IC50, K-Ras G13D GDP
Protocol: (§1) The parameters were F486: Excitation 340 nm, Emission 486 nm, Lag time 100 pas, Integration time 200 pas; F515: Excitation 340 nm, Emission 515 nm, Lag time 100 pas, Integration time 200 pas. TR-FRET ratios for each individual wells were calculated by equation: TR-FRET ratio=(Signal F515/Signal F486)*10000.

[2] = target: T2, K-Ras G12A (Homo sapiens, UniProt P01116, G12A); assay: SOS1 catalyzed nucleotide exchange assay (GDP form K-Ras), TR-FRET; conditions: read-out: Biochemical assays, IC50, K-Ras G12A GDP
Protocol: as §1

[3] = target: T3, K-Ras G12C (Homo sapiens, UniProt P01116, G12C); assay: as above; conditions: read-out: Biochemical assays, IC50, K-Ras G12C GDP
Protocol: as §1

[4] = target: T4, K-Ras G12R (Homo sapiens, UniProt P01116, G12R); assay: as above; conditions: read-out: Biochemical assays, IC50, K-Ras G12R GDP
Protocol: as §1

[5] = target: T5, K-Ras G12V (Homo sapiens, UniProt P01116, G12V); assay: as above; conditions: read-out: Biochemical assays, IC50, K-Ras G12V GDP
Protocol: as §1

[6] = target: T6, K-Ras Q61H (Homo sapiens, UniProt P01116, Q61H); assay: as above; conditions: read-out: Biochemical assays, IC50, K-Ras Q61H GDP
Protocol: as §1

[7] = target: T7, K-Ras WT (Homo sapiens, UniProt P01116); assay: as above; conditions: read-out: Biochemical assays, IC50, K-Ras WT GDP
Protocol: as §1

[8] = target: T2, K-Ras G12A; assay: GTP-K-Ras (GppNp-K-Ras) and cRAF interaction assay, HTRF; conditions: read-out: Biochemical assays, IC50, K-Ras G12A GppNp
Excerpt: (§2) GppNp is an analog of GTP.

[9] = target: T3, K-Ras G12C; assay: as above; conditions: read-out: Biochemical assays, IC50, K-Ras G12C GppNp
Excerpt: as §2

[10] = target: K-Ras G12D (Homo sapiens, UniProt P01116, G12D); assay: as above; conditions: read-out: Biochemical assays, IC50, K-Ras G12D GppNp
Excerpt: as §2

[11] = target: T4, K-Ras G12R; assay: as above; conditions: read-out: Biochemical assays, IC50, K-Ras G12R GppNp
Excerpt: as §2

[12] = target: T5, K-Ras G12V; assay: as above; conditions: read-out: Biochemical assays, IC50, K-Ras G12V GppNp
Excerpt: as §2

[13] = target: T1, K-Ras G13D; assay: as above; conditions: read-out: Biochemical assays, IC50, K-Ras G13D GppNp
Excerpt: as §2

[14] = target: T6, K-Ras Q61H; assay: as above; conditions: read-out: Biochemical assays, IC50, K-Ras Q61H GppNp
Excerpt: as §2

[15] = target: T7, K-Ras WT; assay: as above; conditions: read-out: Biochemical assays, IC50, K-Ras WT GppNp
Excerpt: as §2

[16] = tested on: AGS cell line (K-Ras G12D); assay: Phospho-ERK1/2(THR202/TYR204) HTRF assay; assay type: cell-based; conditions: Homo sapiens; AGS cells (K-Ras G12D), 2 hours incubation; read-out: p-ERK, IC50(nM) AGS
[17] = tested on: SW620 cell line (K-Ras G12V); assay: Phospho-ERK1/2(THR202/TYR204) HTRF assay; assay type: cell-based; conditions: Homo sapiens, SW-620; SW620 cells (K-Ras G12V), 2 hours incubation; read-out: p-ERK, IC50(nM) SW620
[18] = tested on: NCI-H358 cell line (K-Ras G12C); assay: Phospho-ERK1/2(THR202/TYR204) HTRF assay; assay type: cell-based; conditions: Homo sapiens; NCI-H358 cells (K-Ras G12C), 2 hours incubation; read-out: p-ERK, IC50(nM) NCI-H358
[19] = tested on: TCC-PAN2 cell line (K-Ras G12R); assay: Phospho-ERK1/2(THR202/TYR204) HTRF assay; assay type: cell-based; conditions: TCC-PAN2 cells (K-Ras G12R), 2 hours incubation; read-out: p-ERK, IC50(nM) TCC-PAN2
[20] = tested on: NCI-H460 cell line (K-Ras Q61H); assay: Phospho-ERK1/2(THR202/TYR204) HTRF assay; assay type: cell-based; conditions: Homo sapiens; NCI-H460 cells (K-Ras Q61H), 2 hours incubation; read-out: p-ERK, IC50(nM) NCI-H460
[21] = tested on: MKN-1 cell line (K-Ras WT amplification); assay: Phospho-ERK1/2(THR202/TYR204) HTRF assay; assay type: cell-based; conditions: Homo sapiens; MKN-1 cells (K-Ras WT amplification), 2 hours incubation; read-out: p-ERK, IC50(nM) MKN-1
[22] = tested on: K-Ras mutant and K-Ras WT cell lines indicated in Table 20; assay: 2D cell growth inhibition assay (CellTiter-Glo, 6 days); assay type: cell-based
Protocol: Each of cells in culture medium was plated in TC-treated 96-well plates at a density indicated in Table 20 and incubated in a cell incubator overnight.

[23] = tested on: K-Ras mutant and K-Ras WT cell lines indicated in Table 20; assay: 3D cell growth inhibition assay (CellTiter-Glo 3D, 6 days); assay type: cell-based; conditions: 144 h
[24] = 144 h, AGS (K-Ras G12D), absolute IC50, read-out: Cell Growth Inhibition, IC50, AGS
[25] = Homo sapiens, ASPC1, 144 h, AsPC-1 (K-Ras G12D), absolute IC50, read-out: Cell Growth Inhibition, IC50, AsPC-1
[26] = Homo sapiens, SW-620, 144 h, SW620 (K-Ras G12V), absolute IC50, read-out: Cell Growth Inhibition, IC50, SW620
[27] = TCC-PAN2 (K-Ras G12R), absolute IC50, read-out: Cell Growth Inhibition, IC50, TCC-PAN2
[28] = Homo sapiens, MKN-1 (K-Ras WT), absolute IC50, read-out: Cell Growth Inhibition, IC50, MKN-1
[29] = Homo sapiens, NCI-H358 (K-Ras G12C), absolute IC50, read-out: Cell Growth Inhibition, IC50, NCI-H358
[30] = Homo sapiens, NCI-H460 (K-Ras Q61H), absolute IC50, read-out: Cell Growth Inhibition, IC50, NCI-H460

Row | SMILES | IC50 [1] | IC50 [2] | IC50 [3] | IC50 [4] | IC50 [5] | IC50 [6] | IC50 [7] | IC50 [8] | IC50 [9] | IC50 [10] | IC50 [11] | IC50 [12] | IC50 [13] | IC50 [14] | IC50 [15] | IC50 [16] | IC50 [17] | IC50 [18] | IC50 [19] | IC50 [20] | further results
1 | C#Cc1c(F)ccc2cc(O)cc(-c3ncc4c(N(CC)C5CC5)nc(OC[C@@]56CCCN5C[C@H](F)C6)nc4c3F)c12 [Compound 47, 4-(4-(cyclopropyl(ethyl)amino)-8-fluoro-2-(((2R,7aS)-2-fluorotetrahydro-1H-pyrrolizin-7a(5H)-yl)methoxy)pyrido[4,3-d]pyrimidin-7-yl)-5-ethynyl-6-fluoronaphthalen-2-ol] | 5.07 nM | 10.4 nM | 4.69 nM | 2.56 nM | 1.13 nM | 2.84 nM | 5.12 nM | > 1000 nM | 872 nM | 156 nM | 160 nM | 292 nM | 13.1 nM | 575 nM | 329 nM | 14.8 nM | 8.9 nM | 121 nM | 455 nM | 45.6 nM | IC50 [21]: 18.6 nM; IC50 [22, 24]: 38.1 nM; IC50 [22, 25]: 476 nM; IC50 [22, 26]: 42.8 nM; IC50 [23, 27]: > 1000 nM; IC50 [23, 28]: 70 nM; IC50 [23, 29]: 239 nM; IC50 [23, 30]: 727 nM
2 | C#Cc1c(F)ccc2cc(O)cc(-c3ncc4c(N(C)C5CC5C)nc(OC[C@@]56CCCN5C[C@H](F)C6)nc4c3F)c12 (stereo partly drawn) [Compound 49, 5-ethynyl-6-fluoro-4-(8-fluoro-2-(((2R,7aS)-2-fluorotetrahydro-1H-pyrrolizin-7a(5H)-yl)methoxy)-4-(methyl(2-methylcyclo-propyl)amino)pyrido[4,3-d]pyrimidin-7-yl)naphthalen-2-ol] | 9.24 nM | 25.2 nM | 6.01 nM | 7.79 nM | 1.11 nM | 4.85 nM | 8.6 nM | > 1000 nM | ~1000 nM | 222 nM | 144 nM | 333 nM | 20.4 nM | 230 nM | 315 nM | 56.9 nM | 44.1 nM | 68.9 nM | 925 nM | 71 nM | IC50 [21]: 25.9 nM; IC50 [22, 24]: 105 nM; IC50 [22, 25]: 1060 nM; IC50 [22, 26]: 15.1 nM; IC50 [23, 27]: > 1000 nM; IC50 [23, 28]: 137 nM; IC50 [23, 29]: 211 nM; IC50 [23, 30]: 646 nM
